Results reported in the supplement of paper PMC12217912.
The other results are listed elsewhere or left out. Sequences were assembled here from the parent chain. Values near 0.05 are background.

B1: TEV protease; numbered along this chain (parent)
chain: MGESLFKGPRDYNPISSSICHLTNESDGHTTSLYGIGFGPFIITNKHLFRRNNGTLVVQSLHGVFKVKDTTTLQQHLVDGRDMIIIRMPKDFPPFPQKLKFREPQREERICLVTTNFQTKSMSSMVSDTSCTFPSGDGIFWKHWIQTKDGQCGSPLVSTRDGFIVGIHSASNFTNTNNYFTSVPKNFMELLTNQEAQQWVSGWRLNADSVLWGGHKVFMVKPEEPFQPVKEATQL

Variants of: B1
Experiment: raw area under fraction-flipped curve 0-4 h after induction (AUC4h, not background-subtracted), DNA-recorder readout of cleavage of the substrate (dimensionless); higher = more cleavage of the substrate by the protease variant
Conditions: temperature: 34 °C; time window: 0-4 h after rhamnose induction
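Also: Bxb1 expression induced with 0.2% (w/v) L-rhamnose at OD600 near 0.5, cultures sampled hourly, flipped fraction per protease–substrate barcode pair counted by paired-end Illumina sequencing.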

Variant: D128V
- area with substrate ENLYDQS: 0.0856
- area with substrate ENLYGQS: 0.0767
- area with substrate ENLYHQS: 0.0696
- area with substrate ENLYIQS: 0.115
- area with substrate ENLYKQS: 0.0457
- area with substrate ENLYLQS: 0.0788
- area with substrate ENLYMQS: 0.127
- area with substrate ENLYNQS: 0.0753
- area with substrate ENLYPQS: 0.0814
- area with substrate ENLYRQS: 0.0763
- area with substrate ENLYVQS: 0.107
- area with substrate ENLYYQS: 0.0726

Variant: K148W
- area with substrate ENLYDQS: 0.0651
- area with substrate ENLYEQS: 0.0588
- area with substrate ENLYGQS: 0.0688
- area with substrate ENLYHQS: 0.0837
- area with substrate ENLYIQS: 0.1
- area with substrate ENLYKQS: 0.0544
- area with substrate ENLYMQS: 0.0488
- area with substrate ENLYNQS: 0.0652
- area with substrate ENLYPQS: 0.0418
- area with substrate ENLYQQS: 0.0731
- area with substrate ENLYRQS: 0.0637
- area with substrate ENLYSQS: 0.0788
- area with substrate ENLYTQS: 0.0706
- area with substrate ENLYVQS: 0.11
- area with substrate ENLYWQS: 0.0734
- area with substrate ENLYYQS: 0.06

Variant: G138N
- area with substrate ENLYDQS: 0.0575
- area with substrate ENLYEQS: 0.0559
- area with substrate ENLYGQS: 0.0598
- area with substrate ENLYKQS: 0.0668
- area with substrate ENLYMQS: 0.0666
- area with substrate ENLYPQS: 0.0819
- area with substrate ENLYRQS: 0.0571
- area with substrate ENLYSQS: 0.0543
- area with substrate ENLYVQS: 0.153

Variant: G39N
- area with substrate ENLYDQS: 0.035
- area with substrate ENLYEQS: 0.0448
- area with substrate ENLYGQS: 0.0354
- area with substrate ENLYHQS: 0.0368
- area with substrate ENLYKQS: 0.0427
- area with substrate ENLYMQS: 0.0467
- area with substrate ENLYPQS: 0.0376
- area with substrate ENLYRQS: 0.0297
- area with substrate ENLYVQS: 0.0355

Variant: E103V
- area with substrate ENLYDQS: 0.0518
- area with substrate ENLYEQS: 0.0628
- area with substrate ENLYGQS: 0.058
- area with substrate ENLYHQS: 0.0748
- area with substrate ENLYIQS: 0.104
- area with substrate ENLYMQS: 0.09
- area with substrate ENLYNQS: 0.0741
- area with substrate ENLYQQS: 0.0614
- area with substrate ENLYRQS: 0.0759
- area with substrate ENLYSQS: 0.0821
- area with substrate ENLYTQS: 0.0721
- area with substrate ENLYVQS: 0.112
- area with substrate ENLYWQS: 0.0761

Variant: E103H
- area with substrate ENLYDQS: 0.0644
- area with substrate ENLYEQS: 0.0373
- area with substrate ENLYGQS: 0.0723
- area with substrate ENLYHQS: 0.0645
- area with substrate ENLYKQS: 0.0573
- area with substrate ENLYNQS: 0.0714
- area with substrate ENLYPQS: 0.0709
- area with substrate ENLYQQS: 0.0518
- area with substrate ENLYSQS: 0.072
- area with substrate ENLYTQS: 0.084
- area with substrate ENLYWQS: 0.0678

Variant: L33W
- area with substrate ENLYDQS: 0.0625
- area with substrate ENLYEQS: 0.0594
- area with substrate ENLYGQS: 0.0585
- area with substrate ENLYHQS: 0.052
- area with substrate ENLYKQS: 0.0568
- area with substrate ENLYLQS: 0.0624
- area with substrate ENLYMQS: 0.0583
- area with substrate ENLYNQS: 0.0581
- area with substrate ENLYPQS: 0.0559
- area with substrate ENLYQQS: 0.0616
- area with substrate ENLYRQS: 0.0623
- area with substrate ENLYSQS: 0.0626
- area with substrate ENLYTQS: 0.0606
- area with substrate ENLYVQS: 0.0565
- area with substrate ENLYWQS: 0.0511
- area with substrate ENLYYQS: 0.0498

Variant: Y12G
- area with substrate ENLYDQS: 0.0538
- area with substrate ENLYEQS: 0.0595
- area with substrate ENLYGQS: 0.0664
- area with substrate ENLYHQS: 0.0668
- area with substrate ENLYKQS: 0.0916
- area with substrate ENLYLQS: 0.0672
- area with substrate ENLYMQS: 0.112
- area with substrate ENLYNQS: 0.0669
- area with substrate ENLYPQS: 0.0787
- area with substrate ENLYQQS: 0.0659
- area with substrate ENLYRQS: 0.0542
- area with substrate ENLYSQS: 0.0687
- area with substrate ENLYVQS: 0.125
- area with substrate ENLYWQS: 0.0789
- area with substrate ENLYYQS: 0.0616

Variant: N45M
- area with substrate ENLYDQS: 0.0608
- area with substrate ENLYEQS: 0.0608
- area with substrate ENLYGQS: 0.0635
- area with substrate ENLYHQS: 0.0675
- area with substrate ENLYKQS: 0.0708
- area with substrate ENLYMQS: 0.0619
- area with substrate ENLYNQS: 0.0664
- area with substrate ENLYPQS: 0.057
- area with substrate ENLYQQS: 0.0579
- area with substrate ENLYRQS: 0.0602
- area with substrate ENLYTQS: 0.0599
- area with substrate ENLYVQS: 0.0472
- area with substrate ENLYWQS: 0.0539
- area with substrate ENLYYQS: 0.0551

Variant: T31D
- area with substrate ENLYDQS: 0.0658
- area with substrate ENLYEQS: 0.0657
- area with substrate ENLYGQS: 0.0613
- area with substrate ENLYHQS: 0.0675
- area with substrate ENLYIQS: 0.173
- area with substrate ENLYKQS: 0.0576
- area with substrate ENLYMQS: 0.0989
- area with substrate ENLYNQS: 0.0648
- area with substrate ENLYPQS: 0.0778
- area with substrate ENLYQQS: 0.0438
- area with substrate ENLYRQS: 0.0808
- area with substrate ENLYSQS: 0.0696
- area with substrate ENLYVQS: 0.137
- area with substrate ENLYWQS: 0.0849
- area with substrate ENLYYQS: 0.0718

Variant: T31K
- area with substrate ENLYDQS: 0.0534
- area with substrate ENLYEQS: 0.0692
- area with substrate ENLYGQS: 0.074
- area with substrate ENLYHQS: 0.059
- area with substrate ENLYIQS: 0.0612
- area with substrate ENLYKQS: 0.0651
- area with substrate ENLYLQS: 0.0457
- area with substrate ENLYMQS: 0.0584
- area with substrate ENLYNQS: 0.045
- area with substrate ENLYPQS: 0.0397
- area with substrate ENLYQQS: 0.0594
- area with substrate ENLYSQS: 0.0641
- area with substrate ENLYTQS: 0.0616
- area with substrate ENLYVQS: 0.0552
- area with substrate ENLYWQS: 0.0593

Variant: G162A
- area with substrate ENLYDQS: 0.0577
- area with substrate ENLYEQS: 0.0567
- area with substrate ENLYGQS: 0.0697
- area with substrate ENLYHQS: 0.0583
- area with substrate ENLYIQS: 0.114
- area with substrate ENLYKQS: 0.0786
- area with substrate ENLYMQS: 0.0758
- area with substrate ENLYPQS: 0.0728
- area with substrate ENLYQQS: 0.0739
- area with substrate ENLYWQS: 0.0667

Variant: F117R
- area with substrate ENLYDQS: 0.0936
- area with substrate ENLYHQS: 0.0738
- area with substrate ENLYIQS: 0.126
- area with substrate ENLYKQS: 0.0709
- area with substrate ENLYMQS: 0.0829
- area with substrate ENLYNQS: 0.0685
- area with substrate ENLYRQS: 0.0688
- area with substrate ENLYSQS: 0.0605
- area with substrate ENLYVQS: 0.108
- area with substrate ENLYWQS: 0.0924
